Measurements published in publication PMC4336329 (PLoS ONE, 2015).
The campaign covered roughly 310,000 compounds. About 14,000 (4.5%) showed an effect of 50% or more. Effects have a minus sign here. The list shows a part of the results.

What follows are compounds tested against human ether-à-go-go-related gene (hERG) potassium channel (human, UniProt Q12809) (assay: primary screen, population patch clamp on CHO cells stably expressing hERG).
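Note: peak tail current of the secondary pulse compared with the same well before compound.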

Chain of human ether-à-go-go-related gene (hERG) potassium channel (Q12809 whole entry, looked up): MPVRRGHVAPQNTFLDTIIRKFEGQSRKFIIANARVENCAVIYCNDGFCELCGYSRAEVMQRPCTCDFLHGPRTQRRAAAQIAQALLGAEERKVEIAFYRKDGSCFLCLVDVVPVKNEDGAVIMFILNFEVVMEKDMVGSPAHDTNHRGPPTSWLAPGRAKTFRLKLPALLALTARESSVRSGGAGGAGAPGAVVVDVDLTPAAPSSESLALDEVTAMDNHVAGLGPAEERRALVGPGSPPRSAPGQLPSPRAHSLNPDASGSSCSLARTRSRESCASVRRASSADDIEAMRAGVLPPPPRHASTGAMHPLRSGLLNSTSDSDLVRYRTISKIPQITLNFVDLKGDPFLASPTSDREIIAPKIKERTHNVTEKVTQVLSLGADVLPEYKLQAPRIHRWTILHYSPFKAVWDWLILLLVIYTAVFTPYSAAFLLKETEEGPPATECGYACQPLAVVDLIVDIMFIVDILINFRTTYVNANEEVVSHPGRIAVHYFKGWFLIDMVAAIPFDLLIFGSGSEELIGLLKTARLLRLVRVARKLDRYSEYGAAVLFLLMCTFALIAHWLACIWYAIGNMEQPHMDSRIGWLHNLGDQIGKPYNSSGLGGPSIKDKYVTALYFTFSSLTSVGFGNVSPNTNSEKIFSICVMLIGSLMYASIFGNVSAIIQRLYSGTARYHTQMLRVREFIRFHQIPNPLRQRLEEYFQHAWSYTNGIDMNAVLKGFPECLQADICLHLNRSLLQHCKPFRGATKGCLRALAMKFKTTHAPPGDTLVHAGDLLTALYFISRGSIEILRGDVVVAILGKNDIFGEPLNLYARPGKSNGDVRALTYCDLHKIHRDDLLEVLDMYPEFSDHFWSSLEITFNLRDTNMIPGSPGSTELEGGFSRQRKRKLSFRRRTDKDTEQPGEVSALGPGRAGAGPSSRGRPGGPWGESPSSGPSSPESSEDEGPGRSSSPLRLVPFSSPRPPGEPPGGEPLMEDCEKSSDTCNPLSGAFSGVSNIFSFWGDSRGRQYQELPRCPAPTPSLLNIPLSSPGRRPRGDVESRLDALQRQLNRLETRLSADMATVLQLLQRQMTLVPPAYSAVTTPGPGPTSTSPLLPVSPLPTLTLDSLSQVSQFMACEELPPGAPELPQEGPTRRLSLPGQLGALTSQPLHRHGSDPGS

SMILES | hERG current change (%, negative = inhibition) at 10uM [%]
COc1ccccc1NC(=O)c1cc2c(CO)cnc(C)c2oc1=Nc1cccc(C(N)=O)c1 | 32.7
COc1ccc(CSCC(=O)N/N=C/c2ccccc2O)cc1 | 2.06
CC(C)Cn1c(SCC(=O)NCc2ccc(Cl)cc2)nnc1-c1cccc(S(=O)(=O)N2CCOCC2)c1 | -52.9
Oc1ccc2ccccc2c1CNc1ccc(Br)cn1 | 16.7
O=C(Nc1cnn(Cc2ccc(F)cc2)c1)c1cnccn1 | -3.09
CN(C)/C=N/c1c(C(=O)NCc2ccccc2)nnn1Cc1ccccc1 | -12.2
Cc1ccc(C(=O)N/N=C/c2ccoc2)cc1C | -11
CSCCCNC(=S)Nc1ccc(N2CCOCC2)cc1N1CCOCC1 | -13.5
Cc1ccccc1Cc1c(C)nc2c(C(=O)NCc3ccco3)cnn2c1C | -49.2
Cc1noc(NS(=O)(=O)c2ccc(N/C=C/C(=O)c3ccc4c(c3)OCO4)cc2)c1C | -0.795
Cc1ccc(-n2ncc(N(C)C)c(Cl)c2=O)cc1 | -1.82
CN1CCN(c2ccc(NC(=O)c3ccc(C(F)(F)F)cc3)cn2)CC1 | -73.2
Cn1cccc1/C=N/NC(=O)c1cccc(OC(F)(F)C(F)F)c1 | -14.9
CC(CCc1ccco1)NC(=O)CCc1nnc2ccc(NCc3ccccc3Cl)nn12 (centres unmarked) | 13.6
O=C(Nc1ccccc1C(F)(F)F)c1cc(-c2cccc(O)c2)on1 | 1.8
CN(C(=O)C1CCCN1S(=O)(=O)c1ccc(Cl)cc1)c1ccccc1 (centres unmarked) | -24.1
Cc1cc(C(=O)C(=O)NC(C)C)c(C)n1-c1ccc([N+](=O)[O-])cc1 | -22.8
Cc1cccc(OCCNc2cc(N3CCN(C)CC3)ccc2[N+](=O)[O-])c1 | -20.1
COc1ccc(Cc2nc3ccc(C(=O)N(C)CC4COCCO4)cc3o2)cc1 (centres unmarked) | -2.58
COc1ccc(CCC(=O)NCC23CC4CC(CC(C4)C2)C3)cc1 | -31.3
COc1cccc(CN(CC(=O)NCc2ccc(F)cc2)C(=O)c2ccco2)c1 | -39.2
CN1C(=O)Cc2cc(S(=O)(=O)Nc3ccc(Cl)cc3)ccc21 | 8.94

SMILES | hERG current change (%, negative = inhibition) at 10uM [%]
COC(=O)[C@@H]1C[C@@]2(O)[C@H](O)[C@H](O)[C@H](O)C[C@H]2N1Cc1ccc(C)s1 | 5.07
CC1=CCC2C(=O)N(c3cccc(C(=O)NCc4ccccc4)c3)C(=O)C2C1 (centres unmarked) | 2.53
CCN(CC(=O)Nc1c(F)cccc1F)C(=O)COc1ccc2c(c1)CCC2 | -2.81
CS(=O)(=O)N(CC(=O)N1CCN(c2ccccc2)CC1)C1CCCCC1 | 19.2
O=C(Cc1cccc2ccccc12)NC(NC(=S)Nc1ccccc1Cl)C(Cl)(Cl)Cl (centres unmarked) | 11.7
COC1=CC(=Cc2c(N)n3nc(CC(=O)N4CCOCC4)sc3nc2=O)C=C(OC)C1=O | 12.6
O=C(N=C1c2ccccc2CN1c1cccc(Cl)c1)c1cccnc1 | -8.9
O=C(NCCc1ccccc1)c1cc2ncc(Br)cn2n1 | -21.6
Cc1cccc(-n2c(-c3ccccc3)c[nH]c2=S)c1C | 14.6
CCN(CC(=O)Nc1c(F)cccc1F)C(=O)c1ccc2c(c1)NC(=O)C(C)S2 (centres unmarked) | -7.33
O=C(CNCc1ccc(F)cc1)Nc1ccccc1-c1ccccc1 | -10.2
O=C(OCC(=O)N1CCCc2ccccc21)c1cc(S(=O)(=O)N2CCOCC2)ccc1Cl | -5.97
Clc1ccc(-c2cnc3n2CCCCC3)cc1 | -46.4
O=C(CSc1nc2ccccc2c(=O)n1Cc1ccccc1)NCc1ccco1 | -39.6
Cn1cc(CN2CCCCC2c2ccccn2)c(-c2ccc3c(c2)OCCO3)n1 (centres unmarked) | -7.65
Cc1ccc(-c2nonc2NC(=O)c2ccco2)cc1 | -6.58
NS(=O)(=O)c1ccc(CNC(=O)/C=C/c2cccc([N+](=O)[O-])c2)cc1 | -1.29
COc1ccc(C(=O)Nc2cccnc2)cc1 | 19
Cc1ccc(N2C(=O)CC(NNc3nc4ccccc4s3)C2=O)cc1C (centres unmarked) | 7.11
O=C(Nc1ccccc1Cl)OC1CN2CCC1CC2 (centres unmarked) | -32.9
C/C(=N\NC(=O)Cc1cccn1C)c1cccc2ccccc12 | 9.28
CCOC(=O)C1=C(c2ccccc2)NC(N)=NC1c1ccc(OCc2ccc(Cl)cc2)c(OC)c1 (centres unmarked) | -36.8

SMILES | hERG current change (%, negative = inhibition) at 10uM [%]
C(=N\Nc1ccccn1)/c1cccnc1 | 19.3
CCOc1ccc(N2C(=O)C(Cl)=C(Nc3ccccc3O)C2=O)cc1 | -11
Cn1c(=O)cc(SCC(=O)N2CCOCC2)c2ccc(Cl)cc21 | -11.6
COc1ccc(CNC(=O)C/C(C)=N/NC(=O)c2ccccc2OC)cc1 | -8.43
COc1ccc(C(=O)COC(=O)c2ccccc2C(=O)N(C)c2ccccc2)c(OC)c1 | -6.4
CN(C)S(=O)(=O)c1ccc(Cl)c(NC(=O)COC(=O)[C@@H]2CCCN2C(=O)c2cccs2)c1 | -8.22
CCOC(=O)c1cnc(NCc2ccccc2)nc1C | -8.74
CCOc1ccc(-c2nc(C#N)c(NCC(C)C)o2)cc1 | 7.61
COc1ccccc1C(=O)NC(=O)COC(=O)c1cnc(C)cn1 | -0.563
COc1cc([N+](=O)[O-])ccc1NC(=O)/C=C/C(=O)O | 5.95
COc1cccc(NC(=O)C(=O)NCCC2CCCCN2S(=O)(=O)c2ccccc2)c1 (centres unmarked) | 0.746
CN(C)CCC(c1ccccc1)c1ccccn1.O=C(O)/C=C\C(=O)O (centres unmarked) | -14.1
CN(CC(=O)NCc1ccc(F)cc1)S(=O)(=O)c1ccc(Br)s1 | -8.46
O=C(CCNC(=O)c1ccc([N+](=O)[O-])cc1)N/N=C/c1ccc(F)cc1 | -20.5
O=C1/C(=C/c2cccs2)SC(=S)N1CC(=O)N1CCCCC1CCO (centres unmarked) | -3.22
COC(=O)C(C(=O)NCC1CCCO1)C1CCCCCC1 (centres unmarked) | -9.18
COc1ccc(NC(=O)c2ccccc2C)c(OC)c1 | 2.9
COCCNC(=O)c1cccc(OC2CCN(Cc3ccccc3OC(F)F)CC2)c1 | 2.5
O=C(C1CC(=O)N(c2ccc(F)cc2)C1)N1CCC(c2nc3ccccc3[nH]2)CC1 (centres unmarked) | -63.8
O=C(CN1C(=O)NC2(CCCC2)C1=O)N1CCN(c2cccc(C(F)(F)F)c2)CC1 | -24.5
CC(=O)Nc1cccc(N/C(N)=N/c2nc(C)cc(C)n2)c1 | 4.87
COc1cccc(-c2nc(N)nc(SC)c2C#N)c1 | -2.11

SMILES | hERG current change (%, negative = inhibition) at 10uM [%]
O=S(=O)(c1ccccc1)C1Cc2ccccc2C1Cl (centres unmarked) | 18.3
COCCNC(=O)c1cnn2c(C(F)(F)F)cc(-c3ccc(C)cc3)nc12 | -24.1
C=CCC(NCc1ccco1)c1ccc(OC)cc1OC (centres unmarked) | -0.0621
CCCC(=O)n1nc(-c2ccccc2)nc1SC | -48.1
CCc1nnc(SCC(=O)Nc2nc(C)c(C(=O)N(C)C)s2)n1CC | 4.26
Cc1cc(OCC(=O)N(C(C)C)C(C)C)ccc1Cl | -3.57
CC1=C(C(=O)OC(C)C)C(c2ccc(N(C)C)cc2)C2=C(CC(C)(C)CC2=O)N1 (centres unmarked) | -6.8
CCS(=O)(=O)c1ccc(C(=O)NC)c(Cl)c1Cl | 3.88
Cc1cc(OCc2ccc([N+](=O)[O-])cc2)c2c3c(c(=O)oc2c1)CCCC3 | 9.22
COc1ccc(CCNC2=CC(=O)CC(C)(C)C2)cc1 | -21.2
COC(=O)[C@@H]1C[C@@]2(O)[C@@H](O)[C@@H](O)[C@@H](O)C[C@H]2N1CC(c1ccccc1)c1ccccc1 | 2.36
COc1ccc(CNc2ncnc3sccc23)cc1OC | 21.1
NS(=O)(=O)c1ccc(CCNC(=O)CSc2nc3ccsc3c(=O)n2CC(=O)O)cc1 | 0.557
CCCCCCCSc1nnc(-c2ccccc2N)c(=O)[nH]1 | 6.86
COc1ccc(CCNc2nc(N3CCOCC3)nc(N3CCOCC3)n2)cc1OC | 3.45
O=C(COc1ccccc1[N+](=O)[O-])NNC(=O)Nc1cccc2ccccc12 | 14.9
Cc1ccccc1C(=O)NNC(=O)CSc1nc2ccccc2c(=O)[nH]1 | 10.5
Cc1ccccc1OCC(=O)NNC(=S)NC(=O)c1ccccc1[N+](=O)[O-] | 1.05
COCCn1c(N)c(N(Cc2ccccc2)C(=O)CN2C(=O)NC(C)(c3ccccc3)C2=O)c(=O)[nH]c1=O (centres unmarked) | 12.5
CN(C)/C=C/C(=O)c1ccc(N2CCN(c3ncc(C(F)(F)F)cc3Cl)CC2)cc1 | -6.08
